The other results are listed elsewhere or left out. Values were computed here from the reads of four pooled replicates and scatter widely.

The assay concerns the target T1, Pho4 (S. cerevisiae) (UniProt P07270).
T1 sequence: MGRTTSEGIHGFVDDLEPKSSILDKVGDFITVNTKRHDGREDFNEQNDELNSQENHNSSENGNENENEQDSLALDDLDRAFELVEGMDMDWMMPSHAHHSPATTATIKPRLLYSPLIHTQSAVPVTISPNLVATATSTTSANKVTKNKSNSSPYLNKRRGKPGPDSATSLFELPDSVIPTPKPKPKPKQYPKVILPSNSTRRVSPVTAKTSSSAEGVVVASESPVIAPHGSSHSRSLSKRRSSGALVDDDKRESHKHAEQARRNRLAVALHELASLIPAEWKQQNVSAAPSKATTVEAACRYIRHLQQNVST
The experiment in a line: relative binding free energy (BET-seq); higher = weaker binding. The note with it: reference: library average.
Turning to GTTCTCACGTGTTTAG, the “relative binding free energy” value is 0.3 kcal/mol.
As for GCTGTCACGTGTCTTG, the figure is 0.25 kcal/mol; as for GGACTCACGTGGAGTG, 0.12 kcal/mol; as for AGGAACACGTGCGGTG, 0.01 kcal/mol.
As for GGTGACACGTGAGATA, the figure is 0.33 kcal/mol; as for GGAGCCACGTGTGGGG, 0.02 kcal/mol; as for TTTGTCACGTGTACAC, 0.28 kcal/mol.
As to AGATACACGTGGTCTG, the “relative binding free energy” value was -0.07 kcal/mol.
As for AGTGCCACGTGTAATT, the figure is 0.18 kcal/mol.
As for GGTACCACGTGGGATT, the figure is -0.04 kcal/mol.
Consider TTAGTCACGTGCGTGG, for which the “relative binding free energy” value was 0.02 kcal/mol.
As for TCAGACACGTGAGGGA, the figure is 0.34 kcal/mol; as for GGGGGCACGTGGATGG, -0.03 kcal/mol; as for ATGTTCACGTGTACGA, 0.15 kcal/mol.
As for TGTCACACGTGTTTTG, the figure is 0.05 kcal/mol.
As for GGATTCACGTGGATTT, the figure is 0.42 kcal/mol.
As for TGTGGCACGTGATGTT, the “relative binding free energy” value was 0.13 kcal/mol.
As to AGCGGCACGTGGTCGG, the “relative binding free energy” value is -0.25 kcal/mol.
As for ATATTCACGTGACGGT, the “relative binding free energy” value worked out at 0.42 kcal/mol.
Take TGCAGCACGTGGGGTA: the “relative binding free energy” value was -0.12 kcal/mol.
As for GTGTTCACGTGCCTGG, the figure is 0.11 kcal/mol; as for GTCGGCACGTGGGCAG, -0.31 kcal/mol.
As for GTTGTCACGTGATAAT, the figure is 0.29 kcal/mol; as for TGGTGCACGTGTGCCG, 0.06 kcal/mol.
As for TATCGCACGTGGTGGT, the figure is -0.07 kcal/mol; as for TGTGGCACGTGGTTTT, -0.08 kcal/mol; as for TTAGACACGTGAATAT, 0.25 kcal/mol.
Consider TTTGCCACGTGTGCGA, for which the “relative binding free energy” value is -0.04 kcal/mol.
As for ATTGGCACGTGCAATT, the figure is -0.07 kcal/mol.
For AGAAGCACGTGGGATG, the “relative binding free energy” value is -0.18 kcal/mol.
As for AATTACACGTGTAGTT, the figure is 0.07 kcal/mol; as for ATAAGCACGTGTGAAG, -0.04 kcal/mol; as for AGGCTCACGTGTTGAT, 0.2 kcal/mol.
As for AATAACACGTGGGTGC, the figure is -0.14 kcal/mol; as for GTTGGCACGTGATGGT, 0.1 kcal/mol.
In the case of TTGTTCACGTGGATCA, the “relative binding free energy” value is 0.17 kcal/mol.
As for AGGACCACGTGTGGTG, the figure is 0.02 kcal/mol; as for GGTCTCACGTGGCTTG, 0.05 kcal/mol; as for ATGGTCACGTGTACGT, 0.24 kcal/mol.
As for GAGAGCACGTGGGTGT, the figure is -0.17 kcal/mol; as for GTAGCCACGTGTGTGT, 0.03 kcal/mol.
In the case of CTACTCACGTGTTTGT, the “relative binding free energy” value is 0.21 kcal/mol.
Consider CTGGTCACGTGATTAT, for which the “relative binding free energy” value was 0.19 kcal/mol.
As for CTTAGCACGTGGGGGG, the figure is -0.18 kcal/mol; as for TTTGTCACGTGAGTCA, 0.38 kcal/mol.
As for AGTTACACGTGTTGGG, the figure is 0.14 kcal/mol; as for TGGGCCACGTGAGGTG, 0.16 kcal/mol.
As for AATATCACGTGTGGGC, the figure is 0.18 kcal/mol; as for GAGGCCACGTGTGGAG, 0.1 kcal/mol.
Consider AGGAGCACGTGTGTTA, for which the “relative binding free energy” value was found to be 0.08 kcal/mol.
As for ATACACACGTGTTGGG, the figure is -0.09 kcal/mol.
As for AGTTTCACGTGGATGC, the figure is 0.38 kcal/mol.
As for ATTGGCACGTGTGGAG, the figure is -0.11 kcal/mol.
With GCTTACACGTGGTTTA, the “relative binding free energy” value was 0.13 kcal/mol.
As for TGAAACACGTGGGTTA, the figure is -0.08 kcal/mol; as for TTGTGCACGTGGGGGC, -0.19 kcal/mol; as for GGTAACACGTGGTCTT, -0.04 kcal/mol.
As for ACTGTCACGTGGAGTA, the figure is 0.04 kcal/mol; as for TATAGCACGTGCGTTA, 0.01 kcal/mol; as for CATGGCACGTGGATTA, 0.14 kcal/mol.
As for CGAATCACGTGTGTTG, the figure is 0.02 kcal/mol.
For the sequence TGTGACACGTGTAGCG, the “relative binding free energy” value was 0.07 kcal/mol.
Consider AGTTGCACGTGAAGTC, for which the “relative binding free energy” value is 0.35 kcal/mol.
As for AGGTTCACGTGTTGGG, the figure is 0.3 kcal/mol; as for TAGGGCACGTGAGTCG, 0.15 kcal/mol; as for AATGGCACGTGCAGTT, -0.12 kcal/mol.
As for AGTGCCACGTGGTGAG, the figure is 0 kcal/mol.
As for ATAGTCACGTGGGGAG, the figure is 0 kcal/mol; as for CGTTGCACGTGTTGAA, 0.05 kcal/mol; as for TGGCTCACGTGGGTGA, 0.1 kcal/mol.
In the case of GGGTACACGTGGCGGG, the “relative binding free energy” value worked out at 0.01 kcal/mol.
With ATTCGCACGTGTGTTA, the “relative binding free energy” value is -0.06 kcal/mol.
Regarding GTTGCCACGTGGTATT, the “relative binding free energy” value is -0.1 kcal/mol.
As for GGATTCACGTGCGGTA, the figure is 0.21 kcal/mol.
As for TAATACACGTGTTGCT, the figure is 0 kcal/mol.
As for AAGGGCACGTGAAGGA, the figure is 0.1 kcal/mol; as for AGGAACACGTGTAGAG, 0.15 kcal/mol; as for ATTCGCACGTGATTGG, 0.01 kcal/mol.
As to GGTGTCACGTGATTTC, the “relative binding free energy” value was found to be 0.29 kcal/mol.
As for ACAGGCACGTGAGTGG, the figure is 0.18 kcal/mol; as for ATTAGCACGTGTTGCG, -0.08 kcal/mol; as for GGGCCCACGTGGGGTG, -0.3 kcal/mol.
As for GGTGCCACGTGTTGGA, the figure is 0.07 kcal/mol; as for CCTATCACGTGGGGGG, -0.11 kcal/mol; as for AGGAGCACGTGGGAGA, -0.14 kcal/mol.
As for ATGAACACGTGTGTTT, the figure is 0 kcal/mol.
For the sequence TTGTACACGTGGTTAT, the “relative binding free energy” value stood at 0.12 kcal/mol.
As for TGAGGCACGTGAGGAA, the figure is 0.22 kcal/mol; as for GGGTGCACGTGGTCAT, 0.04 kcal/mol; as for GTTCGCACGTGTAGGT, 0 kcal/mol.
As for AGGATCACGTGTAAGG, the figure is 0.28 kcal/mol; as for GTGTGCACGTGATGGT, 0.17 kcal/mol.
As for GCGTACACGTGTTGTG, the figure is -0.04 kcal/mol.
Turning to AGTTACACGTGATGAG, the “relative binding free energy” value amounted to 0.15 kcal/mol.
As for ATTAACACGTGTATTT, the figure is -0.04 kcal/mol; as for AGTAGCACGTGGGCGA, -0.12 kcal/mol.
Regarding ATTAGCACGTGAGGGC, the “relative binding free energy” value is 0.2 kcal/mol.
As for AATGCCACGTGGGTAG, the figure is -0.11 kcal/mol; as for TTTGTCACGTGGAGCG, 0.12 kcal/mol; as for TGTGGCACGTGAAGCG, 0 kcal/mol.
Take TATGGCACGTGATCAG: the “relative binding free energy” value is -0.13 kcal/mol.
As for TTTGGCACGTGACTGT, the figure is -0.14 kcal/mol.
As for GGAGTCACGTGTCATG, the figure is 0.19 kcal/mol; as for GTCAGCACGTGTCGGG, -0.02 kcal/mol; as for TTGAACACGTGGAATT, 0.15 kcal/mol.
Turning to ATAGGCACGTGGATGG, the “relative binding free energy” value was -0.16 kcal/mol.
As for AATAGCACGTGAGTTG, the figure is 0.19 kcal/mol.
As for TACGCCACGTGTGAGG, the figure is 0.07 kcal/mol; as for GGGGACACGTGGGGTA, -0.16 kcal/mol.
As for GGCGGCACGTGGTGGC, the figure is -0.22 kcal/mol.
As to AGGAACACGTGGTGGA, the “relative binding free energy” value amounted to 0.06 kcal/mol.
As for TTAGCCACGTGTGCGT, the figure is -0.11 kcal/mol.
On to TAGGGCACGTGGGGTT, for which the “relative binding free energy” value was -0.22 kcal/mol.
As for CGGTACACGTGAAGTG, the figure is 0.23 kcal/mol; as for AAGTGCACGTGGGAAT, 0.01 kcal/mol.

These data come from the BET-seq Pho4 binding data (Le et al. 2018).
